The values that follow come from ChEMBL document CHEMBL1201862, “PubChem BioAssay data set” (2004).

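Five concentrations, 48 hours, 96-well plates. GI50 marks 50% less growth.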 Calls of active or inactive are those of the source. Cut-off read from the data, not from the text of the source: active = GI50 up to about 1.1 µM and inactive = higher.

The test relates to NCI-H322M. The test is described as follows: inhibition of tumour cell growth, NCI panel, 48 h.
With `Cc1cn([C@@H]2O[C@H](CO)[C@@H](O)[C@@H]2O)c(=O)[nH]c1=O`, the GI50 is inactive: > 1000 µM. Consider `Oc1ccc2c(c1)OCC1(O)Cc3cc(O)c(O)cc3C21` (stereo unspecified), for which the GI50 is inactive: 29.9 µM. On to `Cc1ccc(C2=Nc3ccccc3SC(c3cccc([N+](=O)[O-])c3)C2)cc1` (stereo unspecified), for which the GI50 was inactive: 45.4 µM. For `Nc1nc(O)c2[nH]cnc2[n+]1[O-]`, the GI50 was inactive: > 100 µM.

In the case of `CC(=O)OC1CCC2(C)C(=CCC3C4CCC5(OC6CC(C)CN(C(C)=O)C6C5C)C(C)=C4C(=O)C32)C1` (stereo unspecified), the GI50 is inactive: 20.1 µM. The figure for `COC1=C(OC)C(O)(c2ccccc2)C1=O` (stereo unspecified) is inactive: > 100 µM.

Take `CCOC(=O)C1=C(Nc2ccccc2)OC/C1=N\NC(=O)Cc1ccccc1`: the GI50 is inactive: > 50 µM. The figure for `O=C(C#Cc1ccccc1)C1=Cc2ccccc2OC1` is inactive: 14.1 µM; for `CC(C)CC(NC(=O)C(COc1ccc([N+](=O)[O-])cc1)Cc1ccccc1)C(=O)Nc1ccccc1` (stereo unspecified) it is inactive: > 100 µM; for `COCCOCOc1ccc(OCc2ccccc2)cc1` it is inactive: > 100 µM. As to `NC(=S)NNCC(=O)CC(O)(C(F)(F)F)C(F)(F)Cl` (stereo unspecified), the GI50 is inactive: > 100 µM. The figure for `CC(=O)O[C@H]1C(=O)[C@@]2(C)[C@H]([C@H](OC(=O)c3ccoc3)[C@]3(O)C[C@H](OC(=O)[C@H](O)[C@@H](NC(=O)c4ccccc4)c4ccccc4)C(C)=C1C3(C)C)[C@]1(OC(C)=O)CO[C@@H]1C[C@@H]2O` is active: 0.114 µM; for `CC(=O)OC1CC2Oc3ccc(C)cc3C(C)(O2)C1=O` (stereo unspecified) it is inactive: > 100 µM; for `N=C(N)SCc1cc(Cl)cc(Cl)c1O` it is inactive: 18.7 µM. The figure for `N=C(N)NS(=O)(=O)c1ccc(NC(=O)c2cccc3c(Nc4ccc(S(=O)(=O)N=C(N)N)cc4)c4ccccc4nc23)cc1` is inactive: 95.5 µM; for `O=[N+]([O-])c1ccc(/C=N/Nc2nc3ccccc3[nH]2)o1` it is inactive: 22.8 µM; for `O=C(O[C@H](/C=C/c1ccccc1)P1(=O)N(Cc2ccccc2)[C@@H]2CCCC[C@H]2N1Cc1ccccc1)c1ccccc1` it is inactive: 5.71 µM. Next, `COc1ccc([Se]c2ccc(OC)cc2)cc1`: inactive: > 100 µM; `Cc1cc(NC[C@H](O)[C@H](O)[C@H](O)CO)c(Sc2cc(=O)[nH]c(=O)[nH]2)cc1C`: inactive: > 62.5 µM. For `CCCCn1c2c(c3ccccc3c1=O)C(=O)c1ccccc1-2`, the GI50 is inactive: > 100 µM. Next, `COc1ccc(/C=C(\NC(=O)c2ccccc2)c2nc3ccccc3[nH]2)cc1`: inactive: 89.3 µM; `COC(=O)C1CCC(N2C(=O)CCC2C(=O)OC)=N1` (stereo unspecified): inactive: > 100 µM; `COc1cc([C@@H]2c3cc4c(cc3[C@@H](NC(=O)c3ccc(C(C)=O)cc3)C3COC(=O)[C@@H]32)OCO4)cc(OC)c1O` (stereo partly specified): inactive: 3.74 µM. The figure for `CC(CSc1nc2c(c(=N)n1-c1ccccc1)c(=S)n(-c1ccccc1)c(=S)n2-c1ccccc1)CN(C)C` (stereo unspecified) is inactive: 1.9 µM; for `CCN(CC)CCn1c(=O)c2cccnc2n2c3c(=O)n(C)c(=O)n(C)c3nc12` it is inactive: > 100 µM. The figure for `CCOC(=O)C12CCCC1(O)N(NC(N)=O)C(C)=C2C(=O)OC` (stereo unspecified) is inactive: > 100 µM. `O=C1N[C@H]2C(=O)c3c(Br)sc(Br)c3[C@H]2O1`: the GI50 was inactive: 14.6 µM.

`COc1ccc(OCC(=N/NC(=O)c2ccncc2)/N=C/c2cccnc2)cc1`: the GI50 was inactive: > 100 µM.

For the compound `O=C(Nc1ccc(F)cc1)c1cc2c(cc1Cl)Sc1nccn1S2(=O)=O`, the GI50 was inactive: > 100 µM. The figure for `CCCCN/C(=N\C#N)N(Cc1ccccc1)Cc1ccccc1` is inactive: 48.8 µM. In the case of `O=C1CSC(c2cccc([N+](=O)[O-])c2)N1c1ccc(-c2ccc(-n3c(-c4ccccc4)nc4ccccc4c3=O)cc2)cc1` (stereo unspecified), the GI50 is inactive: 60 µM. The figure for `O=C(O)C1C2C=CC(O2)C1C(=O)Nc1ccccc1` (stereo unspecified) is inactive: > 100 µM; for `CC1(c2ccc(Cl)cc2)C2C(=O)NC(=O)C1C(=O)NC2=O` (stereo unspecified) it is inactive: > 100 µM. On to `Cc1ccc2c(=O)c(C(=O)N(CCO)CCO)c[nH]c2n1`, for which the GI50 is inactive: > 100 µM. The figure for `Brc1cccc(/C=C/CN2CCN(CCOC(c3ccccc3)c3ccccc3)CC2)c1` is inactive: 16.9 µM. Regarding `C/C(CCn1[nH]c(=O)ccc1=O)=N\NC(=O)C(=O)NN`, the GI50 was inactive: > 100 µM. In the case of `N#C/C(=C\c1ccccc1Br)C(=O)c1ccccc1`, the GI50 is inactive: > 100 µM. Next, `O=C(n1c(=O)n(-c2ccc([N+](=O)[O-])cc2)c(=O)n1C(=O)C(Cl)(Cl)Cl)C(Cl)(Cl)Cl`: inactive: > 100 µM; `Cc1cc(Cl)ccc1NC(=O)CC1SC(NC(=O)c2ccccc2Cl)=NC1=O` (stereo unspecified): inactive: > 100 µM.

`OC(CCN1CCN(CCOC(c2ccc(F)cc2)c2ccc(F)cc2)CC1)c1ccccc1` (stereo unspecified): the GI50 was inactive: 15.9 µM. In the case of `CC(C)OC(=O)[C@@H](O)[C@H](CO)C1=CC([Si](C)(C)c2ccccc2)=CON1`, the GI50 was inactive: > 100 µM. The figure for `CC[C@@H]1CN2CCC1C[C@@H]2C(O)c1ccnc2ccc(OCCN3CCN(CCOc4ccc5nccc(C(O)[C@@H]6C[C@@H]7CCN6C[C@@H]7CC)c5c4)CC3)cc12` (stereo partly specified) is inactive: 14.1 µM. The figure for `O=c1cc(-c2ccccc2)[nH]c2c(Cl)cccc12` is inactive: 56.8 µM; for `Cc1cn(CCCCOC(=O)NC(CCCNC(N)=O)C(=O)O)c(=O)[nH]c1=O` (stereo unspecified) it is inactive: > 100 µM.

As to `CN(CC1(CO)CCC1)c1cc(Cl)nc(N)n1`, the GI50 is inactive: > 100 µM. Next, `CCOC(=O)N1C(=S)C(C(=O)OC)(C(=O)OC)N=C1C`: inactive: > 100 µM; `ClC1=NN=C(c2c[nH]c3ccccc23)CC1NCc1ccccc1` (stereo unspecified): inactive: > 100 µM.

In the case of `CC(C)[C@H]1NC(=O)[C@H]2N=C(O[C@@H]2C)[C@@H]2CCCN2C(=O)[C@H](Cc2ccccc2)NC(=O)[C@@H]2COC(=N2)[C@@H](Cc2ccccc2)NC(=O)[C@@H]2COC1=N2`, the GI50 is inactive: > 100 µM. The figure for `CCc1cccc(C)c1NC(=O)CCc1nnc(S)[nH]1` is inactive: > 100 µM.

Turning to `Cc1ccc2[nH]c3[nH]c(=O)[nH]c(=O)c3c2c1`, the GI50 was inactive: > 100 µM. Next, `O=C(O)C1C(Br)(c2ccccc2)C1(Br)c1ccccc1` (stereo unspecified): inactive: 29.9 µM; `COc1ccc2cc(NC(=O)Nn3cnnc3)ccc2c1`: inactive: > 100 µM. Next, `N#CCC(=O)N1CCCCCCC1`: inactive: > 100 µM; `COC(=O)CCN1CCN(CCO)CC1C` (stereo unspecified): inactive: > 10 µM; `CC(=O)C1CC(C)=CCC12C(=O)Nc1ccccc12` (stereo unspecified): inactive: > 100 µM. Next, `CC(=O)OCC(=O)[C@@]12OC(C)(C)O[C@@H]1C[C@H]1[C@@H]3CC=C4C[C@@H](O)CC[C@]4(C)[C@H]3CC[C@@]12C`: inactive: > 100 µM; `COC(=O)C1CCCN1C(=O)OC(C)(C)C` (stereo unspecified): inactive: > 100 µM; `CCOC(=O)C12CC(C)=C(C)CC1CCCc1ccccc12` (stereo unspecified): inactive: 35.5 µM. As for `COc1cc(O)c2c(=O)c(OC)c(-c3ccc4c(c3)OCO4)oc2c1OC`, the GI50 is inactive: > 50 µM.

As for `C[C@H](C(=O)N1C(=O)O[C@@H](c2ccccc2)[C@H]1C)[C@H](c1ccccc1)N(Cc1ccccc1)OC(=O)c1ccccc1`, the GI50 was inactive: 15.5 µM. With `COC(=O)c1c2c(cc3c1CC1(Cc4cc5c(cc4C1=O)CCC5)C3)CCC2` (stereo unspecified), the GI50 is inactive: 48.4 µM. Next, `CO/C(=N\N=C\c1cccc(C(F)(F)F)c1)c1ccncc1`: inactive: 36.9 µM; `CSc1nc2c(nc(N)n2C2OC(COC(C)=O)C(OC(C)=O)C(OC(C)=O)C2OC(C)=O)c(=O)n1C` (stereo unspecified): inactive: > 100 µM.

As to `CCN(CC)CCCC(C)Nc1ccnc(/C=C/c2ccc(Cl)cc2)c1` (stereo unspecified), the GI50 was inactive: 2.31 µM.

As for `CCC(CN(C)C)C(=O)c1ccco1` (stereo unspecified), the GI50 was inactive: > 100 µM. The figure for `CCOC(=O)Cc1c(Cc2[nH]c(C(=O)OCc3ccccc3)c(CC(=O)OCC)c2CC(=O)OCC)[nH]c(C(=O)OCc2ccccc2)c1CC(=O)OCC` is inactive: > 100 µM; for `CN(C)/C=N/NC(=O)/C(C#N)=C/N(C)C` it is inactive: > 100 µM; for `C=C(COCO)C(C)=O` it is inactive: 43.6 µM. The figure for `COc1ccc(N2C(=O)/C(=C/c3ccc(N(CCC#N)CCC#N)cc3)N=C2c2ccccc2)cc1` is inactive: > 100 µM. Next, `O=C(O)c1ccccc1/N=N/c1c(O)c(S(=O)(=O)O)cc2cc(S(=O)(=O)O)ccc12`: inactive: > 100 µM. With `CN(C)CCNCc1c2ccccc2c(CNCCN(C)C)c2ccccc12`, the GI50 was inactive: 21.1 µM.

For `CC(=O)O[C@H]1C(=O)[C@@]2(C)[C@H]([C@H](OC(=O)c3cccc(C(F)(F)F)c3)[C@]3(O)C[C@H](OC(=O)[C@H](O)[C@@H](NC(=O)c4ccccc4)c4ccccc4)C(C)=C1C3(C)C)[C@]1(OC(C)=O)CO[C@@H]1C[C@@H]2O`, the GI50 was active: 0.00617 µM.

With `C[N+](C)(C)CC1CCCC(C[N+](C)(C)C)C1=NO` (stereo unspecified), the GI50 was inactive: > 100 µM. Next, `C[N+](C)(C)CC1CCC(C[N+](C)(C)C)C1=NO` (stereo unspecified): inactive: > 100 µM. The figure for `C[C@@H]1C[C@H]2CC[C@H](O2)[C@H](C)C(=O)O[C@@H](C)C[C@@H]2CC[C@@H](O2)[C@@H](C)C(=O)O[C@H](C)C[C@H]2CC[C@H](O2)[C@H](C)C(=O)O[C@@H](C)C[C@@H]2CC[C@@H](O2)[C@@H](C)C(=O)O1` is inactive: 1.18 µM. Regarding `O=C1/C(=C/c2ccc(Br)cc2)CCC/C1=C\c1ccc(Br)cc1`, the GI50 is inactive: 19.6 µM.
